Measured values as given in patent publication US20240368248A1 (VEGENICS, published 2024).
Where two headings read alike, the source gives them in different places.

T1: VEGF-C 109 (minimal VEGF-C fragment with 109 residues)
T1 construct: Not naturally occurring minimal fragment
T1 chain: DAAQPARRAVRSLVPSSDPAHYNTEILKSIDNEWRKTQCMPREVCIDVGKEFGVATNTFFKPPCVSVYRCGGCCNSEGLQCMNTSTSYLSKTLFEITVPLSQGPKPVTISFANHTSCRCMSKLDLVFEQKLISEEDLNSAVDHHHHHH

T2: VEGF-A 109 (minimal VEGF-A fragment with 109 residues)
T2 construct: Not naturally occurring minimal fragment
T2 chain: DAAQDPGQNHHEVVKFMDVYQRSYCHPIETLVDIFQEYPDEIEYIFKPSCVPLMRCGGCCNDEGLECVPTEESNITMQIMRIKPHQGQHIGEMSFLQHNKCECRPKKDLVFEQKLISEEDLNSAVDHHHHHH


Assays:
Test in all cases: pull-down of labelled ligand with receptor-Fc and protein A sepharose, SDS-PAGE
[1] = molecular target: T1, VEGF-C 109 (minimal VEGF-C fragment …)
[2] = molecular target: T2, VEGF-A 109 (minimal VEGF-A fragment …)
[3] = molecular target: T1, VEGF-C 109 (minimal VEGF-C fragment …)

Binder	binding result [1]	binding result [2]	binding result [3]
R-2 B with CD33 Signal Peptide (VEGFR-2 residues 24-220, Fc fusion construct) (Fc fusion, CD33 signal peptide) DKLASGTLEDGRGSLPSVSLDLPRLSIQKDILTIKANTTLQITCRGQRDLDWLWPNNQSGSEQRVEVTECSDGLFCKTLTIPKVIGNDTGAYKCFYRETDLASVIYVYVQDYRSPFIASVSDQHGVVYITENKNKTVVIPCLGSISNLNVSLCARYPEKRFVPDGNRISWDSKKGFTIPSYMISYAGMVFCEAKINDESYQSIMYIVVVVGDPIEGRGGGGGD[human IgG1 Fc with changes left out]	no binding	no binding	–
R-2 F with CD33 Signal Peptide (VEGFR-2 residues 24-122, Fc fusion construct) (Fc fusion, CD33 signal peptide) DKLASGTLEDGRGSLPSVSLDLPRLSIQKDILTIKANTTLQITCRGQRDLDWLWPNNQSGSEQRVEVTECSDGLFCKTLTIPKVIGNDTGAYKCFYRETDLASVIYVYVQDPIEGRGGGGGD[human IgG1 Fc with changes left out]	no binding	no binding	–
R-2 H with CD33 Signal Peptide (VEGFR-2 residues 118-220, Fc fusion construct) (Fc fusion, CD33 signal peptide; also called R-2 H fragment) DKLASVQDYRSPFIASVSDQHGVVYITENKNKTVVIPCLGSISNLNVSLCARYPEKRFVPDGNRISWDSKKGFTIPSYMISYAGMVFCEAKINDESYQSIMYIVVVVGDPIEGRGGGGGD[human IgG1 Fc with changes left out]	–	no binding	–
R-2 I with CD33 Signal Peptide (VEGFR-2 residues 118-226, Fc fusion construct) (Fc fusion, CD33 signal peptide) DKLASVQDYRSPFIASVSDQHGVVYITENKNKTVVIPCLGSISNLNVSLCARYPEKRFVPDGNRISWDSKKGFTIPSYMISYAGMVFCEAKINDESYQSIMYIVVVVGYRIYDVDPIEGRGGGGGD[human IgG1 Fc with changes left out]	–	no binding	–
R-2 J with CD33 Signal Peptide (VEGFR-2 residues 118-232, Fc fusion construct) (Fc fusion, CD33 signal peptide) DKLASVQDYRSPFIASVSDQHGVVYITENKNKTVVIPCLGSISNLNVSLCARYPEKRFVPDGNRISWDSKKGFTIPSYMISYAGMVFCEAKINDESYQSIMYIVVVVGYRIYDVVLSPSHDPIEGRGGGGGD[human IgG1 Fc with changes left out]	–	no binding	–
R-2 K with CD33 Signal Peptide (VEGFR-2 residues 118-241, Fc fusion construct) (Fc fusion, CD33 signal peptide) DKLASVQDYRSPFIASVSDQHGVVYITENKNKTVVIPCLGSISNLNVSLCARYPEKRFVPDGNRISWDSKKGFTIPSYMISYAGMVFCEAKINDESYQSIMYIVVVVGYRIYDVVLSPSHGIELSVGEKDPIEGRGGGGGD[human IgG1 Fc with changes left out]	no binding	no binding	–
R-2 L with CD33 Signal Peptide (VEGFR-2 residues 220-326, Fc fusion construct) (Fc fusion, CD33 signal peptide) DKLASYRIYDVVLSPSHGIELSVGEKLVLNCTARTELNVGIDFNWEYPSSKHQHKKLVNRDLKTQSGSEMKKFLSTLTIDGVTRSDQGLYTCAASSGLMTKKNSTFVRVHEDPIEGRGGGGGD[human IgG1 Fc with changes left out]	no binding	no binding	–
R-3 H (VEGFR-3 residues 1-134, Fc fusion construct) (Fc fusion) YSMTPPTLNITEESHVIDTGDSLSISCRGQHPLEWAWPGAQEAPATGDKDSEDTGVVRDCEGTDARPYCKVLLLHEVHANDTGSYVCYYKYIKARIEGTTAASSYVFVRDPIEGRGGGGGD[human IgG1 Fc with changes left out]	–	–	no binding
R-3 I (VEGFR-3 residues 1-39, 132-329, Fc fusion construct) (Fc fusion, Ig domain 1 deleted; domains 2 and 3 of VEGFR-3) YSMTPPTLNITEESHVRDFEQPFINKPDTLLVNRKDAMWVPCLVSIPGLNVTLRSQSSVLWPDGQEVVWDDRRGMLVSTPLLHDALYLQCETTWGDQDFLSNPFLVHITGNELYDIQLLPRKSLELLVGEKLVLNCTVWAEFNSGVTFDWDYPGKQAERGKWVPERRSQQTHTELSSILTIHNVSQHDLGSYVCKANNGIQRFRESTEVIVHEDPIEGRGGGGGD[human IgG1 Fc with changes left out]	–	–	no binding
R-3 J (VEGFR-3 residues 1-39, 132-247, Fc fusion construct) (Fc fusion, Ig domain 1 deleted; only domain 2 of VEGFR-3) YSMTPPTLNITEESHVRDFEQPFINKPDTLLVNRKDAMWVPCLVSIPGLNVTLRSQSSVLWPDGQEVVWDDRRGMLVSTPLLHDALYLQCETTWGDQDFLSNPFLVHITGNELYDIQLLPRKSLELLVGEKDPIEGRGGGGGD[human IgG1 Fc with changes left out]	–	–	no binding
R-3 K (VEGFR-3 residues 1-39, 132-229, Fc fusion construct) (Fc fusion, Ig domain 1 deleted) YSMTPPTLNITEESHVRDFEQPFINKPDTLLVNRKDAMWVPCLVSIPGLNVTLRSQSSVLWPDGQEVVWDDRRGMLVSTPLLHDALYLQCETTWGDQDFLSNPFLVHITGNELADPIEGRGGGGGD[human IgG1 Fc with changes left out]	–	–	no binding
R-2 C with CD33 Signal Peptide (VEGFR-2 residues 24-226, Fc fusion construct) (Fc fusion, CD33 signal peptide) DKLASGTLEDGRGSLPSVSLDLPRLSIQKDILTIKANTTLQITCRGQRDLDWLWPNNQSGSEQRVEVTECSDGLFCKTLTIPKVIGNDTGAYKCFYRETDLASVIYVYVQDYRSPFIASVSDQHGVVYITENKNKTVVIPCLGSISNLNVSLCARYPEKRFVPDGNRISWDSKKGFTIPSYMISYAGMVFCEAKINDESYQSIMYIVVVVGYRIYDVDPIEGRGGGGGD[human IgG1 Fc with changes left out]	no binding	no binding	–
R-2 D with CD33 Signal Peptide (VEGFR-2 residues 24-232, Fc fusion construct) (Fc fusion, CD33 signal peptide) DKLASGTLEDGRGSLPSVSLDLPRLSIQKDILTIKANTTLQITCRGQRDLDWLWPNNQSGSEQRVEVTECSDGLFCKTLTIPKVIGNDTGAYKCFYRETDLASVIYVYVQDYRSPFIASVSDQHGVVYITENKNKTVVIPCLGSISNLNVSLCARYPEKRFVPDGNRISWDSKKGFTIPSYMISYAGMVFCEAKINDESYQSIMYIVVVVGYRIYDVVLSPSHDPIEGRGGGGGD[human IgG1 Fc with changes left out]	no binding	no binding	–
R-2 E with CD33 Signal Peptide (VEGFR-2 residues 24-241, Fc fusion construct) (Fc fusion, CD33 signal peptide) DKLASGTLEDGRGSLPSVSLDLPRLSIQKDILTIKANTTLQITCRGQRDLDWLWPNNQSGSEQRVEVTECSDGLFCKTLTIPKVIGNDTGAYKCFYRETDLASVIYVYVQDYRSPFIASVSDQHGVVYITENKNKTVVIPCLGSISNLNVSLCARYPEKRFVPDGNRISWDSKKGFTIPSYMISYAGMVFCEAKINDESYQSIMYIVVVVGYRIYDVVLSPSHGIELSVGEKDPIEGRGGGGGD[human IgG1 Fc with changes left out]	no binding	no binding	–
